This is an account of results in paper PMC6919601, “Identification of Plasmodium dipeptidyl aminopeptidase allosteric inhibitors by high throughput screening” (PLoS ONE, 2019).

The whole screen tested about 110,000 compounds, of which about 230 (0.21%) showed an effect of 50% or more. The list shows a part of the results.
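Note: 30 min substrate incubation versus DMSO and 10 µM JCP410 controls.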

Chain of DPAP1 (Q8IIJ9 whole entry, looked up): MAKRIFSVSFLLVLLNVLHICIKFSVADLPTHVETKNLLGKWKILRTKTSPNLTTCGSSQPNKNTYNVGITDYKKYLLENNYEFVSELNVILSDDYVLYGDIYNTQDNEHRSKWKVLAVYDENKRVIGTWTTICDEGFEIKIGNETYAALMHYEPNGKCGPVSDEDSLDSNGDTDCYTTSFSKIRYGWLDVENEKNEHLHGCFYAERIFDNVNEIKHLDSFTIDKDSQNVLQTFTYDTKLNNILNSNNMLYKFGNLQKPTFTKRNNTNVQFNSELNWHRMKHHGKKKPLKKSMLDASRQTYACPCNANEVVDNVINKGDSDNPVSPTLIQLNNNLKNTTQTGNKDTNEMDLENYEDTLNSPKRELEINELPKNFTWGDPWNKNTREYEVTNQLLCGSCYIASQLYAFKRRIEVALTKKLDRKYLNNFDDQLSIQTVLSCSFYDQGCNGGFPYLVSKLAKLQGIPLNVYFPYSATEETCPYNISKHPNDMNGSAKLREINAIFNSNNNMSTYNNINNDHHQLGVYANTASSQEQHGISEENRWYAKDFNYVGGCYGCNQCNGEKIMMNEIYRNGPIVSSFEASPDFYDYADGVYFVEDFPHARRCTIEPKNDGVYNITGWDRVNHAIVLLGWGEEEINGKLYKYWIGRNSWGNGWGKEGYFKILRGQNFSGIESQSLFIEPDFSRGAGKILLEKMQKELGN

The experiment has as its target DPAP1 (Plasmodium falciparum, UniProt Q8IIJ9). The experiment can be described thus: primary screen, percent inhibition; read by cleavage of a fluorogenic dipeptide substrate; higher = more effect of the substance. The arrangement: species or system P. falciparum D10 trophozoite lysates; single well.
`COc1cccc(C(C)NC(=O)c2cccc(OC)c2OC)c1` (stereo not drawn): the “% Inhibition @ 10 uM” value worked out at 0.873%.

For the molecule `N#CCCn1c2c(c3ccccc31)CCC2`, the “% Inhibition @ 10 uM” value is -4.58%.

In the case of `CC(C)(C)C(=O)CC(=O)Nc1cc([N+](=O)[O-])ccc1Cl`, the “% Inhibition @ 10 uM” value was determined as 4.74%.

Regarding `CC(C(=O)NCCCN(C)C1CCCCC1)n1ncn2cccc2c1=O` (stereo not drawn), the “% Inhibition @ 10 uM” value is -5.95%.

Take `Cn1c(=O)c2c(nc3n2CCCN3C2CCCC2)n(C)c1=O`: the “% Inhibition @ 10 uM” value is on record as -5.35%.

Turning to `N#CCCn1c2c(c3ccccc31)CCCC2`, the “% Inhibition @ 10 uM” value is recorded as 1.44%.

With `CCCNC(=O)CN(c1ccc(F)cc1)S(=O)(=O)c1ccc2c(c1)OCCO2`, the “% Inhibition @ 10 uM” value is 3.65%.

As for `Cc1cc(=O)n(C(C)C(=O)N2CCc3ccccc3C2)c2c1c(C)nn2-c1ccccc1` (stereo not drawn), the “% Inhibition @ 10 uM” value amounted to 3.33%.

In the case of `Cc1ccc(-c2c(NC3CCCCCCC3)c(=O)c2=O)cc1`, the “% Inhibition @ 10 uM” value was -1.69%.

As to `Cc1ccc(S(=O)(=O)N(CC(=O)N2CCCCCC2)c2ccccc2Cl)cc1`, the “% Inhibition @ 10 uM” value turned out to be 3.06%.

With `COc1cc(CNCc2ccccc2)ccc1OCCO`, the “% Inhibition @ 10 uM” value was -1.63%.

With `O=C1S/C(=C/c2cc3c(cc2Br)OCO3)C(=O)N1CN1CCOCC1`, the “% Inhibition @ 10 uM” value is -3.37%.

Consider `Cc1ccc(C)c(N(CC(=O)N2CCN(c3ccccc3)CC2)S(=O)(=O)c2ccccc2)c1`, for which the “% Inhibition @ 10 uM” value is listed as -2.94%.

As for `CCOP(C)(=O)CN1CCCCC1` (stereo not drawn), the “% Inhibition @ 10 uM” value is listed as -2.77%.

Take `Cc1ccsc1CN1CCN(c2ccc(Cl)cc2)CC1`: the “% Inhibition @ 10 uM” value is recorded as -0.0404%.

`Cc1cc(C)nc(SCCN2CCCC2)n1`: the “% Inhibition @ 10 uM” value was determined as 4.03%.

Consider `C=CCNC(=O)CCCc1nnc2n3nc(-c4ccccc4)nc3c3ccccc3n12`, for which the “% Inhibition @ 10 uM” value is given as -1.21%.

In the case of `CC1(C)CC(=O)C2=C(C1)NC(=O)CC2c1cc2c(cc1Br)OCO2` (stereo not drawn), the “% Inhibition @ 10 uM” value is reported as -7.98%.

For `N#C/C(=C(/O)c1ccco1)c1nc2ccccc2[nH]1`, the “% Inhibition @ 10 uM” value is listed as -0.142%.

Consider `CCOC(=O)c1[nH]c2ccccc2c1-n1cccc1`, for which the “% Inhibition @ 10 uM” value is on record as -0.0309%.

Turning to `CCCN(CCC)CCCNC(=O)Cc1noc2ccccc12`, the “% Inhibition @ 10 uM” value was -1.08%.

As to `CCc1c(O)n2nc(-c3ccccc3)ccc2[n+](-c2ccc(F)cc2)c1=O`, the “% Inhibition @ 10 uM” value is -0.496%.

Turning to `O=C(C1CCN(c2nc3ccc(Br)cc3s2)CC1)N1CCC2(CC1)OCCO2`, the “% Inhibition @ 10 uM” value is -1.6%.

For the molecule `O=C(CN1N=C(c2ccc(Cl)cc2)CCC1=O)NCCCN1CCC(Cc2ccccc2)CC1`, the “% Inhibition @ 10 uM” value turned out to be 3.79%.

On to `COc1ccc(OCCn2cnc3ccccc32)cc1`, for which the “% Inhibition @ 10 uM” value was -0.366%.

As for `CCn1cc(C2=NOC(C(=O)N3CCOCC3)C2)c(C)n1` (stereo not drawn), the “% Inhibition @ 10 uM” value is given as -1.37%.

Regarding `CC1=C(c2ccc(C)cc2)S(=O)(=O)N=C1NCCCN1CCC(N2CCCCC2)CC1`, the “% Inhibition @ 10 uM” value is -1.08%.

With `CCOc1ccc2nc(N3CCCCC3)sc2c1`, the “% Inhibition @ 10 uM” value is recorded as -0.256%.

`Cc1nn(CC(=O)NCC2CCCO2)c(=O)c2c1sc1ccccc12` (stereo not drawn): the “% Inhibition @ 10 uM” value is reported as -5.61%.

For `Cc1ccc(-n2nc(C)c3c(C)c(CCC(=O)NC(C)C)c(C)nc32)cc1C`, the “% Inhibition @ 10 uM” value worked out at 0.953%.

For the molecule `O=CN1CCN(Cc2c(F)cccc2Cl)CC1`, the “% Inhibition @ 10 uM” value is on record as 7.28%.

As for `CCn1c(=O)sc2cc(NC(C)=O)ccc21`, the “% Inhibition @ 10 uM” value is -1.05%.

Consider `COc1ccc(N2CCN(Cc3ccc(OC)c(O)c3)CC2)cc1`, for which the “% Inhibition @ 10 uM” value was found to be 4.73%.

With `CC(=O)NS(=O)(=O)c1ccc(NC(=O)c2ccc(C)c(C)c2)cc1`, the “% Inhibition @ 10 uM” value is -3.39%.

Turning to `COc1cc2c(cc1OC)CN(Cc1ccc([N+](=O)[O-])cc1)CC2`, the “% Inhibition @ 10 uM” value came out at 1.38%.

Take `Cc1cc(NS(=O)(=O)c2ccc(NC(=O)COc3cccc(C(C)C)c3)cc2)no1`: the “% Inhibition @ 10 uM” value is -13.6%.

Turning to `O=C1C2C3C=CC(CNc4ccc([N+](=O)[O-])cn4)(O3)C2C(=O)N1c1ccccc1` (stereo not drawn), the “% Inhibition @ 10 uM” value is -1.74%.

Take `Cn1c(=O)c2c(ncn2CC(=O)Nc2ccc(OC(F)(F)F)cc2)n(C)c1=O`: the “% Inhibition @ 10 uM” value is on record as -0.0619%.

With `CC(C)CNC(=O)Cn1cnc2c1c(=O)n(C)c(=O)n2C`, the “% Inhibition @ 10 uM” value was -2.73%.

With `O=C(Nc1sc2c(c1C(=O)NCc1cccnc1)CCCC2)c1ccco1`, the “% Inhibition @ 10 uM” value was found to be 3.91%.

On to `COc1ccc(-c2nc3scc(CCNC(=O)c4cc(OC)c(OC)c(OC)c4)n3n2)cc1`, for which the “% Inhibition @ 10 uM” value came to 5.49%.

Regarding `O=C(COc1ccc(Br)cc1)NCCc1c[nH]c2ccccc12`, the “% Inhibition @ 10 uM” value amounted to 1.63%.

With `Nc1cccc(C(=O)Nc2ccccc2Cl)c1`, the “% Inhibition @ 10 uM” value turned out to be 5.64%.

Turning to `COC(=O)/C(C#N)=C/c1c(Oc2cc(C)cc(C)c2)nc2ccccn2c1=O`, the “% Inhibition @ 10 uM” value stood at 2%.

On to `CC(=O)c1cc2c(cc1NC(=O)CCCC(=O)O)OCO2`, for which the “% Inhibition @ 10 uM” value is given as 0.983%.

As for `COc1cc(C(=O)Nc2nc(-c3ccc(C)cc3)cs2)c(Br)c(OC)c1OC`, the “% Inhibition @ 10 uM” value was determined as 2.17%.

In the case of `c1ccc2[nH]c(SCCSc3nc4ccccc4[nH]3)nc2c1`, the “% Inhibition @ 10 uM” value is -6.71%.

In the case of `Nc1c(C(=O)Nc2ccccn2)cnn1-c1ccccc1`, the “% Inhibition @ 10 uM” value is on record as -3.25%.

As for `Cc1ccc(C(=O)Nc2ccc(N(C)C)cc2)cc1C`, the “% Inhibition @ 10 uM” value is given as -2.74%.

`CN(CCNC(=O)CCC(=O)N1Cc2ccccc2Oc2ncccc21)C1CCCCC1`: the “% Inhibition @ 10 uM” value was determined as 0.275%.

Take `Cc1ccccc1Cn1c(=O)n(CCC(=O)NCCc2ccc(Cl)cc2)c(=O)c2sccc21`: the “% Inhibition @ 10 uM” value is 1.23%.

Turning to `CC(=O)c1ccc(N2CCN(Cc3c(C)[nH]c4ccccc34)CC2)cc1`, the “% Inhibition @ 10 uM” value was 1.87%.

Take `Cn1cnnc1SCC(=O)c1ccc2c(c1)OCO2`: the “% Inhibition @ 10 uM” value is given as 5.38%.

In the case of `COc1ccc(C2NC(C(=O)O)CS2)cc1COc1cc(C)c(Cl)c(C)c1` (stereo not drawn), the “% Inhibition @ 10 uM” value is recorded as 9.35%.

Take `CC1=C(C(=O)OC2CCCCCC2)C(c2coc3ccccc3c2=O)C2=C(O)CCCC2=N1` (stereo not drawn): the “% Inhibition @ 10 uM” value is 2.25%.

For the molecule `CC(C)(C)Nc1nc(NC2CCCCC2)nc(N2CCOCC2)n1`, the “% Inhibition @ 10 uM” value is reported as -0.591%.

For the molecule `Cc1cc(-c2nc(-c3ccncc3)no2)c2ccccc2n1`, the “% Inhibition @ 10 uM” value came out at 1.32%.

For `Cc1sc2nc(SCCCC(=O)Nc3ccc(S(N)(=O)=O)cc3)nc(O)c2c1C`, the “% Inhibition @ 10 uM” value is recorded as -1.64%.

With `CC1Oc2ccccc2C=C1/C=C(\C#N)C(=O)NC1CCS(=O)(=O)C1` (stereo not drawn), the “% Inhibition @ 10 uM” value was 0.408%.

With `CCOc1ccc(C2CC(=O)c3c([nH]c(C(=O)O)c3C)C2)cc1` (stereo not drawn), the “% Inhibition @ 10 uM” value was 2.35%.

Turning to `Cc1ccc(CNC(=O)CN(c2ccc(C)c(C)c2)S(C)(=O)=O)cc1`, the “% Inhibition @ 10 uM” value was determined as 7.38%.

In the case of `CCC[C@H](N[C@H](C(=O)NCC#N)c1ccc(-c2ccc(S(C)(=O)=O)cc2)cc1)C(=O)NC1(C#N)CC1`, the “% Inhibition @ 10 uM” value is listed as -6.46%.

For `CCNC(=O)c1cc2c(=O)n3cccc(C)c3nc2n(Cc2cccnc2)c1=N`, the “% Inhibition @ 10 uM” value was -1.47%.
